# From the supplement of paper PMC4967469
# Compound: Cn1c(=O)n(-c2ccc(C(C)(C)C#N)cc2)c2c3cc(-c4cnc5ccccc5c4)ccc3ncc21 [NVP-BEZ235]
# Assay: Viability of human cancer cell lines after 72 h of drug (GDSC screen)
# Method: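 Human cancer cell lines in 384-well plates, medium with 10% serum, drug for 72 h over a 256-fold dose range (nine 2-fold or five 4-fold steps up to the top dose). Adherent lines were fixed and stained with the nucleic acid dye Syto60, suspension lines read with resazurin; signal relative to control wells, capped at 0 and 100%. One two-parameter sigmoid per drug and line, fitted in a mixed model over all curves with the slope shared within a line.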
Cell Line,AUC,pIC50
"SK-MES-1 (lung squamous cell carcinoma, adherent, top dose 0.25 µM)",0.695,7.24
"HA7-RCC (kidney, adherent, top dose 0.25 µM)",0.588,7.55
"A101D (melanoma, adherent, top dose 0.25 µM)",0.545,7.67
"PCI-6A (head and neck, adherent, top dose 0.25 µM)",0.7,7.25
"IHH-4 (thyroid, semi-adherent, top dose 0.25 µM)",0.589,7.59
"U-87-MG (glioma, adherent, top dose 0.25 µM)",0.882,< 6.60
"SW1271 (small cell lung carcinoma, adherent, top dose 0.25 µM)",0.883,< 6.60
"SBC-3 (small cell lung carcinoma, adherent, top dose 0.25 µM)",0.691,7.30
"RPMI-6666 (Hodgkin lymphoma, suspension, top dose 0.25 µM)",0.646,7.36
"LCLC-103H (large cell lung carcinoma, adherent, top dose 2 µM)",0.546,6.79
"KYM-1 (rhabdomyosarcoma, adherent, top dose 2 µM)",0.217,7.66
"TC-71 (Ewing sarcoma, adherent, top dose 0.25 µM)",0.745,7.17
"EM-2 (chronic myeloid leukaemia, suspension, top dose 0.25 µM)",0.713,7.16
"MDA-MB-415 (breast, adherent, top dose 0.25 µM)",0.749,6.97
"RCC-FG2 (kidney, adherent, top dose 0.25 µM)",0.567,7.60
"CADO-ES1 (Ewing sarcoma, suspension, top dose 0.25 µM)",0.814,6.86
"KNS-42 (glioma, adherent, top dose 0.25 µM)",0.788,6.88
"HEC-1 (endometrium, adherent, top dose 0.25 µM)",0.718,7.20
"MDA-MB-231 (breast, adherent, top dose 0.25 µM)",0.753,7.05
"H2591 (mesothelioma, adherent, top dose 2 µM)",0.284,7.60

Cell Line,AUC,pIC50
"RH-18 (rhabdomyosarcoma, adherent, top dose 0.25 µM)",0.848,6.64
"EoL-1-cell (haematopoietic neoplasm, suspension, top dose 0.25 µM)",0.669,7.36
"LB831-BLC (bladder, adherent, top dose 0.25 µM)",0.793,6.94
"PSN1 (pancreas, adherent, top dose 0.25 µM)",0.67,7.37
"CHL-1 (melanoma, adherent, top dose 0.25 µM)",0.507,7.79
"PF-382 (T-cell lymphoblastic leukaemia, suspension, top dose 0.25 µM)",0.784,7.03
"CPC-N (small cell lung carcinoma, suspension, top dose 0.25 µM)",0.81,6.84
"GMS-10 (glioma, adherent, top dose 0.25 µM)",0.835,6.79
"WSU-DLCL2 (B-cell lymphoma, suspension, top dose 0.25 µM)",0.603,7.55
"NCI-H1792 (lung adenocarcinoma, adherent, top dose 0.25 µM)",0.728,7.19
"EW-7 (Ewing sarcoma, semi-adherent, top dose 0.25 µM)",0.612,7.52
"OACM5-1 (oesophagus, semi-adherent, top dose 0.25 µM)",0.917,< 6.60
"SNU-423 (liver, adherent, top dose 0.25 µM)",0.722,7.13
"Hs633T (fibrosarcoma, adherent, top dose 0.25 µM)",0.385,8.10
"GR-ST (lymphoblastic leukaemia, suspension, top dose 0.25 µM)",0.7,7.19
"NCI-H838 (lung adenocarcinoma, adherent, top dose 0.25 µM)",0.584,7.57
"NCI-H1838 (lung adenocarcinoma, adherent, top dose 2 µM)",0.708,6.25
"MPP-89 (mesothelioma, adherent, top dose 0.25 µM)",0.601,7.49
"COLO-680N (oesophagus, adherent, top dose 0.25 µM)",0.904,< 6.60
"HuP-T4 (pancreas, adherent, top dose 0.25 µM)",0.765,7.01

Cell Line,AUC,pIC50
"H3118 (head and neck, adherent, top dose 0.25 µM)",0.701,7.21
"OCI-AML5 (acute myeloid leukaemia, suspension, top dose 0.25 µM)",0.847,6.80
"MFE-296 (endometrium, adherent, top dose 0.25 µM)",0.593,7.54
"A253 (head and neck, adherent, top dose 0.25 µM)",0.851,6.74
"HCC2157 (breast, suspension, top dose 0.25 µM)",0.654,7.37
"MLMA (hairy cell leukaemia, semi-adherent, top dose 0.25 µM)",0.733,7.14
"HLE (liver, adherent, top dose 0.25 µM)",0.648,7.41
"TE-8 (oesophagus, adherent, top dose 0.25 µM)",0.72,7.16
"HUTU-80 (digestive system, adherent, top dose 0.25 µM)",0.215,8.56
"SW1783 (glioma, adherent, top dose 0.25 µM)",0.787,7.01
"CTB-1 (B-cell lymphoma, suspension, top dose 0.25 µM)",0.615,7.44
"A673 (rhabdomyosarcoma, adherent, top dose 0.25 µM)",0.989,< 6.60
"L-1236 (Hodgkin lymphoma, suspension, top dose 0.25 µM)",0.443,7.95
"OCUM-1 (stomach, adherent, top dose 0.25 µM)",0.784,6.92
"NUGC-3 (stomach, adherent, top dose 0.25 µM)",0.506,7.79
"MG-63 (osteosarcoma, adherent, top dose 0.25 µM)",0.49,7.84
"KU812 (chronic myeloid leukaemia, suspension, top dose 0.25 µM)",0.785,7.01
"H2369 (mesothelioma, adherent, top dose 0.25 µM)",0.696,7.24

# pIC50: −log10 of the molar value. By IC50 is meant the dose at which the fit gives 50% viability; a fit beyond the top or the lowest dose is shown as a bound at that dose. AUC sums up the same curve from the lowest dose to the 256-fold higher top dose: 1 means no effect, lower means more sensitive.
